# Measured values reported in the supplement of paper PMC8728848.
# The other results are listed elsewhere or left out.
# B1: MIC4-A5 (Toxoplasma gondii), Q9XZH7 (protein)
# chain: SPDFHDEVECVHTGNIGSKAQTIGEVKRASSLSECRARCQAEKECSHYTYNVKSGLCYPKRGKPQFYKYLGDMTGSRTCDTS
# Key:
# Test in all cases: glycan array binding signal (z-score within array); higher = stronger binding
# Details in all cases: glycan notation: IUPAC condensed, linker removed
# [1] = target: Man(b1-4)Man(b1-4)Man(b1-4)Man(b1-4)Man(b1-4)Man
# In short: (§1)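 Negative Z-scores can be read as non-binding. The Z-score is calculated within each array and then averaged across arrays of one protein sequence at different concentrations or buffers and across linkers. Arrays, 3228 in all, were curated from the Consortium for Functional Glycomics database and kept only where the protein sequence was available.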
# [2] = target: Man6P(a1-3)Man(a1-3)Man(a1-3)Man(a1-2)Man
# In short: as §1
# Neu(a2-3)Gal(b1-4)Glc = target: Neu(a2-3)Gal(b1-4)Glc
# In short: as §1
# [3] = target: Neu(a2-3)Gal(b1-4)GlcNAc(b1-3)Gal(b1-4)[Fuc(a1-3)]GlcNAc(b1-3)Gal(b1-4)Glc
# In short: as §1
# [4] = target: Neu(a2-3)Gal(b1-4)GlcNAc6S(b1-3)Gal(b1-4)Glc
# In short: as §1
# [5] = target: Neu(a2-3)Gal(b1-4)[Fuc(a1-3)]GlcNAc(b1-3)Gal(b1-4)Glc
# In short: as §1
# [6] = target: Neu(a2-3)Gal(b1-4)[Fuc(a1-3)]GlcNAc6S(b1-3)Gal(b1-4)Glc
# In short: as §1
# [7] = target: Neu(a2-3)Gal6S(b1-4)[Fuc(a1-3)]GlcN(b1-3)Gal(b1-4)Glc
# In short: as §1
# Neu(a2-6)Gal(b1-4)Glc = target: Neu(a2-6)Gal(b1-4)Glc
# In short: as §1
# [8] = target: Neu4Ac5Ac(a2-3)Gal(b1-4)Glc
# In short: as §1
# Neu5Ac(a2-3)Gal = target: Neu5Ac(a2-3)Gal
# In short: as §1
# [9] = target: Neu5Ac(a2-3)Gal(b1-3)GalNAc(b1-4)[Neu5Ac(a2-3)]Gal(b1-4)Glc
# In short: as §1
# [10] = target: Neu5Ac(a2-3)Gal(b1-3)GalNAc(b1-4)[Neu5Ac(a2-8)Neu5Ac(a2-3)]Gal(b1-4)Glc
# In short: as §1
# [11] = target: Neu5Ac(a2-3)Gal(b1-3)GlcNAc
# In short: as §1
# [12] = target: Neu5Ac(a2-3)Gal(b1-3)GlcNAc(b1-3)Gal(b1-4)Glc
# In short: as §1
# [13] = target: Neu5Ac(a2-3)Gal(b1-3)GlcNAc(b1-3)[Fuc(a1-3)[Gal(b1-4)]GlcNAc(b1-6)]Gal(b1-4)Glc
# In short: as §1
# [14] = target: Neu5Ac(a2-3)Gal(b1-3)[Fuc(a1-4)]GlcNAc
# In short: as §1
# [15] = target: Neu5Ac(a2-3)Gal(b1-3)[Fuc(a1-4)]GlcNAc(b1-3)Gal(b1-4)Glc
# In short: as §1
# [16] = target: Neu5Ac(a2-3)Gal(b1-3)[Neu5Ac(a2-6)]GalNAc
# In short: as §1
# [17] = target: Neu5Ac(a2-3)Gal(b1-3)[Neu5Ac(a2-6)]GlcNAc(b1-3)Gal(b1-4)Glc
# In short: as §1
# Neu5Ac(a2-3)Gal(b1-4)Glc = target: Neu5Ac(a2-3)Gal(b1-4)Glc
# In short: as §1
# [18] = target: Neu5Ac(a2-3)Gal(b1-4)GlcNAc
# In short: as §1
# [19] = target: Neu5Ac(a2-3)Gal(b1-4)GlcNAc(b1-2)Man(a1-3)[Neu5Ac(a2-3)Gal(b1-4)GlcNAc(b1-2)Man(a1-6)]Man(b1-4)GlcNAc(b1-4)[Fuc(a1-6)]GlcNAc
# In short: as §1
# [20] = target: Neu5Ac(a2-3)Gal(b1-4)GlcNAc(b1-3)Gal(b1-4)Glc
# In short: as §1
# [21] = target: Neu5Ac(a2-3)Gal(b1-4)GlcNAc6S(b1-3)Gal6S(b1-3)GlcNAc6S
# In short: as §1
# [22] = target: Neu5Ac(a2-3)Gal(b1-4)[Fuc(a1-3)]GlcNAc
# In short: as §1
# [23] = target: Neu5Ac(a2-3)Gal(b1-4)[Fuc(a1-3)]GlcNAc(b1-3)Gal
# In short: as §1
# [24] = target: Neu5Ac(a2-3)Gal(b1-4)[Fuc(a1-3)]GlcNAc(b1-3)Gal(b1-4)Glc
# In short: as §1
# [25] = target: Neu5Ac(a2-3)Gal(b1-4)[Fuc(a1-3)]GlcNAc(b1-3)Gal(b1-4)[Fuc(a1-3)]GlcNAc(b1-3)Gal(b1-4)Glc
# In short: as §1
# [26] = target: Neu5Ac(a2-3)Gal(b1-4)[Fuc(a1-3)]GlcNAc6S(b1-3)Gal(b1-4)Glc
# In short: as §1
# [27] = target: Neu5Ac(a2-3)Gal6S(b1-4)[Fuc(a1-3)]GlcNAc(b1-3)Gal(b1-4)Glc
# In short: as §1
# [28] = target: Neu5Ac(a2-3)Gal6S(b1-4)[Fuc(a1-3)]GlcNAc6S(b1-3)Gal(b1-4)Glc
# In short: as §1
# [29] = target: Neu5Ac(a2-3)[GalNAc(b1-4)]Gal(b1-3)GalNAc(b1-4)[Neu5Ac(a2-3)]Gal(b1-4)Glc
# In short: as §1
# [30] = target: Neu5Ac(a2-3)[GalNAc(b1-4)]Gal(b1-4)Glc
# In short: as §1
# [31] = target: Neu5Ac(a2-6)Gal(b1-3)GlcNAc(b1-3)[Fuc(a1-3)[Gal(b1-4)]GlcNAc(b1-6)]Gal(b1-4)Glc
# In short: as §1
# [32] = target: Neu5Ac(a2-6)Gal(b1-3)GlcNAc(b1-3)[Gal(b1-4)GlcNAc(b1-6)]Gal(b1-4)Glc
# In short: as §1
# Neu5Ac(a2-6)Gal(b1-4)Glc = target: Neu5Ac(a2-6)Gal(b1-4)Glc
# In short: as §1
# [33] = target: Neu5Ac(a2-6)Gal(b1-4)GlcNAc
# In short: as §1
# [34] = target: Neu5Ac(a2-6)Gal(b1-4)GlcNAc(b1-2)Man(a1-3)[Neu5Ac(a2-6)Gal(b1-4)GlcNAc(b1-2)Man(a1-6)]Man(b1-4)GlcNAc(b1-4)GlcNAc
# In short: as §1
# [35] = target: Neu5Ac(a2-6)Gal(b1-4)GlcNAc(b1-2)Man(a1-3)[Neu5Gc(a2-6)Gal(b1-4)GlcNAc(b1-2)Man(a1-6)]Man(b1-4)GlcNAc(b1-4)GlcNAc
# In short: as §1
# [36] = target: Neu5Ac(a2-6)Gal(b1-4)GlcNAc(b1-2)[Neu5Ac(a2-3)Gal(b1-4)GlcNAc(b1-4)]Man(a1-3)[Neu5Ac(a2-3)Gal(b1-4)GlcNAc(b1-2)Man(a1-6)]Man(b1-4)GlcNAc(b1-4)GlcNAc
# In short: as §1
# [37] = target: Neu5Ac(a2-6)Gal(b1-4)GlcNAc(b1-3)Gal(b1-4)Glc
# In short: as §1
# [38] = target: Neu5Ac(a2-6)Gal(b1-4)GlcNAc(b1-3)Gal(b1-4)[Fuc(a1-3)]Glc
# In short: as §1
# [39] = target: Neu5Ac(a2-6)Gal(b1-4)GlcNAc(b1-3)[Neu5Ac(a2-6)Gal(b1-4)GlcNAc(b1-6)]Gal(b1-4)Glc
# In short: as §1
# [40] = target: Neu5Ac(a2-6)Gal(b1-4)GlcNAc(b1-6)[Gal(b1-3)GlcNAc(b1-3)]Gal(b1-4)Glc
# In short: as §1
binder,measurement,setting,value
B1,glycan array binding signal (z-score),[1],-0.317
same,glycan array binding signal (z-score),[2],-0.323
same,glycan array binding signal (z-score),Neu(a2-3)Gal(b1-4)Glc,-0.302
same,glycan array binding signal (z-score),[3],-0.323
same,glycan array binding signal (z-score),[4],-0.279
same,glycan array binding signal (z-score),[5],-0.317
same,glycan array binding signal (z-score),[6],-0.315
same,glycan array binding signal (z-score),[7],-0.323
same,glycan array binding signal (z-score),Neu(a2-6)Gal(b1-4)Glc,-0.31
same,glycan array binding signal (z-score),[8],-0.323
same,glycan array binding signal (z-score),Neu5Ac(a2-3)Gal,-0.323
same,glycan array binding signal (z-score),[9],-0.191
same,glycan array binding signal (z-score),[10],-0.043
same,glycan array binding signal (z-score),[11],-0.323
same,glycan array binding signal (z-score),[12],-0.321
same,glycan array binding signal (z-score),[13],-0.323
same,glycan array binding signal (z-score),[14],-0.323
same,glycan array binding signal (z-score),[15],-0.323
same,glycan array binding signal (z-score),[16],-0.323
same,glycan array binding signal (z-score),[17],-0.323
same,glycan array binding signal (z-score),Neu5Ac(a2-3)Gal(b1-4)Glc,-0.32
same,glycan array binding signal (z-score),[18],-0.312
same,glycan array binding signal (z-score),[19],-0.323
same,glycan array binding signal (z-score),[20],-0.323
same,glycan array binding signal (z-score),[21],-0.291
same,glycan array binding signal (z-score),[22],-0.323
same,glycan array binding signal (z-score),[23],-0.323
same,glycan array binding signal (z-score),[24],-0.323
same,glycan array binding signal (z-score),[25],-0.323
same,glycan array binding signal (z-score),[26],-0.323
same,glycan array binding signal (z-score),[27],-0.323
same,glycan array binding signal (z-score),[28],-0.323
same,glycan array binding signal (z-score),[29],-0.323
same,glycan array binding signal (z-score),[30],-0.311
same,glycan array binding signal (z-score),[31],-0.317
same,glycan array binding signal (z-score),[32],-0.093
same,glycan array binding signal (z-score),Neu5Ac(a2-6)Gal(b1-4)Glc,-0.319
same,glycan array binding signal (z-score),[33],-0.32
same,glycan array binding signal (z-score),[34],-0.323
same,glycan array binding signal (z-score),[35],-0.323
same,glycan array binding signal (z-score),[36],-0.304
same,glycan array binding signal (z-score),[37],-0.321
same,glycan array binding signal (z-score),[38],-0.319
same,glycan array binding signal (z-score),[39],-0.323
same,glycan array binding signal (z-score),[40],0.909
